# Experimental data: the supplement of paper PMC8728848
# The other results are listed elsewhere or left out.
# What was measured:
# Experiment in all cases: glycan array binding signal (z-score within array); higher = stronger binding
# Conditions in all cases: glycan notation: IUPAC condensed, linker removed
# [1] = target: Neu5Ac(a2-6)GlcNAc(b1-4)GlcNAc
# Outline: (§1)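 Columns mapping to the same glycan were averaged after glycan names were converted to IUPAC-condensed notation. The data come from 3228 arrays in the Consortium for Functional Glycomics database, limited to those with an available protein sequence. Binding is reported as a within-array Z-score averaged across arrays of one protein sequence and across linkers.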
# [2] = target: Neu5Ac(a2-6)GlcNAc(b1-4)GlcNAc(b1-4)GlcNAc
# Outline: as §1
# Neu5Ac(a2-8)Neu5Ac = target: Neu5Ac(a2-8)Neu5Ac
# Outline: as §1
# [3] = target: Neu5Ac(a2-8)Neu5Ac(a2-3)Gal(b1-3)GalNAc(b1-4)[Neu5Ac(a2-3)]Gal(b1-4)Glc
# Outline: as §1
# [4] = target: Neu5Ac(a2-8)Neu5Ac(a2-3)Gal(b1-3)GalNAc(b1-4)[Neu5Ac(a2-8)Neu5Ac(a2-3)]Gal(b1-4)Glc
# Outline: as §1
# [5] = target: Neu5Ac(a2-8)Neu5Ac(a2-3)Gal(b1-4)Glc
# Outline: as §1
# [6] = target: Neu5Ac(a2-8)Neu5Ac(a2-3)Gal(b1-4)GlcNAc
# Outline: as §1
# [7] = target: Neu5Ac(a2-8)Neu5Ac(a2-3)[Gal(b1-3)GalNAc(b1-4)]Gal(b1-4)Glc
# Outline: as §1
# [8] = target: Neu5Ac(a2-8)Neu5Ac(a2-3)[GalNAc(b1-4)]Gal(b1-4)Glc
# Outline: as §1
# [9] = target: Neu5Ac(a2-8)Neu5Ac(a2-8)Neu5Ac
# Outline: as §1
# [10] = target: Neu5Ac(a2-8)Neu5Ac(a2-8)Neu5Ac(a2-3)Gal(b1-4)Glc
# Outline: as §1
# [11] = target: Neu5Ac(a2-8)Neu5Ac(a2-8)Neu5Ac(a2-3)[Gal(b1-3)GalNAc(b1-4)]Gal(b1-4)Glc
# Outline: as §1
# [12] = target: Neu5Ac(a2-8)Neu5Ac(a2-8)Neu5Ac(a2-3)[GalNAc(b1-4)]Gal(b1-4)Glc
# Outline: as §1
# [13] = target: Neu5Ac(a2-8)Neu5Ac(a2-8)Neu5Ac(a2-8)Neu5Ac(a2-3)[GalNAc(b1-4)]Gal(b1-4)Glc
# Outline: as §1
# [14] = target: Neu5Ac(a2-8)Neu5Gc(a2-3)Gal(b1-4)GlcNAc
# Outline: as §1
# [15] = target: Neu5Ac(b2-6)Gal(b1-4)GlcNAc
# Outline: as §1
# Neu5Ac(b2-6)GalNAc = target: Neu5Ac(b2-6)GalNAc
# Outline: as §1
# [16] = target: Neu5Ac9Ac(a2-3)Gal(b1-3)GlcNAc
# Outline: as §1
# [17] = target: Neu5Ac9Ac(a2-3)Gal(b1-4)GlcNAc
# Outline: as §1
# [18] = target: Neu5Ac9Ac(a2-6)Gal(b1-4)GlcNAc
# Outline: as §1
# [19] = target: Neu5Gc(a2-3)Gal(b1-3)GlcNAc
# Outline: as §1
# [20] = target: Neu5Gc(a2-3)Gal(b1-3)[Fuc(a1-4)]GlcNAc
# Outline: as §1
# Neu5Gc(a2-3)Gal(b1-4)Glc = target: Neu5Gc(a2-3)Gal(b1-4)Glc
# Outline: as §1
# [21] = target: Neu5Gc(a2-3)Gal(b1-4)GlcNAc
# Outline: as §1
# [22] = target: Neu5Gc(a2-3)Gal(b1-4)GlcNAc(b1-3)Gal(b1-4)GlcNAc(b1-2)Man(a1-3)[Neu5Gc(a2-3)Gal(b1-4)GlcNAc(b1-3)Gal(b1-4)GlcNAc(b1-2)Man(a1-6)]Man(b1-4)GlcNAc(b1-4)GlcNAc
# Outline: as §1
# [23] = target: Neu5Gc(a2-3)Gal(b1-4)[Fuc(a1-3)]GlcNAc
# Outline: as §1
# [24] = target: Neu5Gc(a2-6)Gal(b1-4)GlcNAc
# Outline: as §1
# Neu5Gc(a2-6)GalNAc = target: Neu5Gc(a2-6)GalNAc
# Outline: as §1
# [25] = target: Neu5Gc(a2-8)Neu5Ac(a2-3)Gal(b1-4)GlcNAc
# Outline: as §1
# [26] = target: Neu5Gc(a2-8)Neu5Gc(a2-3)Gal(b1-4)GlcNAc
# Outline: as §1
# [27] = target: Neu5Gc(a2-8)Neu5Gc(a2-3)Gal(b1-4)GlcNAc(b1-3)Gal(b1-4)GlcNAc
# Outline: as §1
# [28] = target: Neu5Gc(a2-8)Neu5Gc(a2-6)Gal(b1-4)GlcNAc
# Outline: as §1
# [29] = target: Neu5Gc(b2-6)Gal(b1-4)GlcNAc
# Outline: as §1
binder,measurement,setting,value
"Epa6 (Candida glabrata), Q6DTM7_CANGB (protein) MGSSHHHHHHSSGLVPRGSHMKDDYSSSLSNNNLGWTDPTEFPLGCSPNVTTPKNGLSMELYSYDYLKSGSNPCWDAAYLDPNYPRTGYKSHRLLAKVENVAGNINFYYHAPMGCTSLFDTLPQAYNYRTPLTMTNFTMLLYGYFKPKVTGYHTFTISADDLLFVNFGAGNAFDCCKRESSADDFGNYQAYAVWGSQTAKDDLTVHLDAGLYYPIRIFFNNRDNDGALSLTLKTESDPNPVIDFSDYFYSFDDTKDGCPGLVSYDTS",glycan array binding signal (z-score),[1],-0.338
same,glycan array binding signal (z-score),[2],-0.314
same,glycan array binding signal (z-score),Neu5Ac(a2-8)Neu5Ac,-0.308
same,glycan array binding signal (z-score),[3],-0.27
same,glycan array binding signal (z-score),[4],-0.191
same,glycan array binding signal (z-score),[5],-0.347
same,glycan array binding signal (z-score),[6],-0.334
same,glycan array binding signal (z-score),[7],1.19
same,glycan array binding signal (z-score),[8],-0.332
same,glycan array binding signal (z-score),[9],-0.301
same,glycan array binding signal (z-score),[10],-0.321
same,glycan array binding signal (z-score),[11],-0.146
same,glycan array binding signal (z-score),[12],-0.341
same,glycan array binding signal (z-score),[13],-0.322
same,glycan array binding signal (z-score),[14],-0.299
same,glycan array binding signal (z-score),[15],-0.25
same,glycan array binding signal (z-score),Neu5Ac(b2-6)GalNAc,-0.317
same,glycan array binding signal (z-score),[16],-0.319
same,glycan array binding signal (z-score),[17],-0.331
same,glycan array binding signal (z-score),[18],-0.307
same,glycan array binding signal (z-score),[19],-0.296
same,glycan array binding signal (z-score),[20],-0.331
same,glycan array binding signal (z-score),Neu5Gc(a2-3)Gal(b1-4)Glc,-0.321
same,glycan array binding signal (z-score),[21],-0.323
same,glycan array binding signal (z-score),[22],-0.311
same,glycan array binding signal (z-score),[23],-0.284
same,glycan array binding signal (z-score),[24],-0.302
same,glycan array binding signal (z-score),Neu5Gc(a2-6)GalNAc,-0.311
same,glycan array binding signal (z-score),[25],-0.258
same,glycan array binding signal (z-score),[26],-0.336
same,glycan array binding signal (z-score),[27],-0.28
same,glycan array binding signal (z-score),[28],-0.285
same,glycan array binding signal (z-score),[29],-0.181
